Results: article PMC4336329 (PLoS ONE, 2015)
In all, about 310,000 compounds went through this assay and about 14,000 (4.5%) showed an effect of 50% or more. The effect is printed as a negative number. This is one part of the list.

Biological target: human ether-à-go-go-related gene (hERG) potassium channel (human, UniProt Q12809)
Test: primary screen, population patch clamp on CHO cells stably expressing hERG
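Also: peak tail current of the secondary pulse compared with the same well before compound.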

Sequence of human ether-à-go-go-related gene (hERG) potassium channel (Q12809 whole entry, looked up): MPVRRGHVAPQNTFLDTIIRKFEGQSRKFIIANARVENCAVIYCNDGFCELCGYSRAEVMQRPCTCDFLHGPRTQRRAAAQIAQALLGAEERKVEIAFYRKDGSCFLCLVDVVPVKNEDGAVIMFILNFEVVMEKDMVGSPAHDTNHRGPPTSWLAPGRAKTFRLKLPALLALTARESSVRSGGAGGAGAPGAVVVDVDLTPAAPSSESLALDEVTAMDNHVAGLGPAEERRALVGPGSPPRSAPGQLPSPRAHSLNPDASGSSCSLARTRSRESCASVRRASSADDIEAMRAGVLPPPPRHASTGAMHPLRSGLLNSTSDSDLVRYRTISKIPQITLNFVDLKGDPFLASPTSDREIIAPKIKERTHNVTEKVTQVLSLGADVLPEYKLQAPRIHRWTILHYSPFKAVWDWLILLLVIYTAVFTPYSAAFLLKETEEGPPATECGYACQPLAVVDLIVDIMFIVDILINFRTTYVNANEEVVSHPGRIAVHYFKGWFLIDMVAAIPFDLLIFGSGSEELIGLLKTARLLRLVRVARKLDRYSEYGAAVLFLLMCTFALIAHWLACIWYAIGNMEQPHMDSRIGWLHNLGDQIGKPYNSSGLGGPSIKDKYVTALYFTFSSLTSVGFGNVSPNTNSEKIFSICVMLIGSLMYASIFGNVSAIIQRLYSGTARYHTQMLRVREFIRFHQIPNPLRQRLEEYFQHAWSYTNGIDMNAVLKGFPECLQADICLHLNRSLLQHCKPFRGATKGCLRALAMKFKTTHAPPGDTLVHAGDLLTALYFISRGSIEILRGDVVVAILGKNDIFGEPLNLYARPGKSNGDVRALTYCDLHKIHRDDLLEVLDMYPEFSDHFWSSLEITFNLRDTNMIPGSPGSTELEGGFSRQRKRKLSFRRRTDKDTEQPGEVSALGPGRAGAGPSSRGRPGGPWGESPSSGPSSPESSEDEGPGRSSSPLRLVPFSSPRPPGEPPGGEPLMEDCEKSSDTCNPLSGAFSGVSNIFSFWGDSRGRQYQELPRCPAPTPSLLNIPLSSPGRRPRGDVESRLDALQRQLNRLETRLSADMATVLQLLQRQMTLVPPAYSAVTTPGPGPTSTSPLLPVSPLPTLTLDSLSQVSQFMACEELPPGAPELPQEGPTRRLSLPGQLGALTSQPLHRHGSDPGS

| SMILES | hERG current change (%, negative = inhibition) at 10uM [%] |
| --- | --- |
| O=C(CCCOc1ccc(Cl)cc1Cl)NCc1ccccn1 | -18.4 |
| CN(CC(=O)NCC1CCCO1)S(=O)(=O)c1ccc(Br)cc1 (stereo not shown) | -22.6 |
| Cn1c(CCN2CCCCC2)nc2cc(NC(=O)C3CCCCC3)ccc21 | -60.2 |
| COc1cc(OC)c(C2SCCCS2)cc1OC | -1.46 |
| COc1ccc(C(=O)NCc2ccccc2OC)c(OC)c1 | -11.6 |
| O=C(NNC(=S)Nc1ccccc1C(F)(F)F)c1ccc(Br)o1 | 12.1 |
| Cc1cc(=O)c(C(=O)Nc2cccc(C(=O)NC3CC3)c2)nn1-c1ccccc1Cl | -8.37 |
| C=CCNC(=O)Nc1cc(Cl)ccc1OC | 7.65 |
| CCN(Cc1nc(-c2ccc(Cl)cc2)no1)CC1CCCO1 (stereo not shown) | -62.9 |
| COC(=O)c1sc2nc3c(cc2c1N)CCCC3 | 22.5 |
| Cc1nc2ccccn2c1C(=O)NN=C1CCN(C)CC1 | 15.1 |
| COc1ccc(CN2C(=O)c3cccnc3C2=O)cc1S(=O)(=O)N1CCOc2ccc(C)cc21 | -11.6 |
| COC(OC)C12c3ccccc3C(c3ccccc31)C1C(=O)N(c3cccnc3)C(=O)C12 (stereo not shown) | 1.05 |
| N#Cc1nc(-c2ccco2)oc1NCc1ccco1 | -9.23 |
| COC(=O)c1ccc(S(=O)(=O)N2CCCN(Cc3cccc(Br)c3F)CC2)n1C | -12.9 |
| Cc1cccc(C(=O)N2CC3(C)CC2CC(C)(C)C3)c1 (stereo not shown) | 0.368 |
| Cc1ccc(-c2nc(CN3CCCC(C(=O)N4CCOCC4)C3)c(C)o2)cc1 (stereo not shown) | -37.5 |
| CCc1ccc(CNC(=O)c2ccc(NC(=O)C3=CSCCO3)cc2)cc1 | -23 |
| CC1=NN(c2nc(-c3ccc(F)cc3)cs2)C(=O)C1 | 2.35 |
| CC1CCN(CCCNC(=O)CN2C(=O)CSc3ccc(S(=O)(=O)N4CCOCC4)cc32)CC1 | 6.31 |
| Cc1ccc(S(=O)(=O)N2CCCC(C)C2)cc1 (stereo not shown) | 12.9 |
| c1ccc(CCNc2nnnn2-c2ccccc2)cc1 | 7.47 |

| SMILES | hERG current change (%, negative = inhibition) at 10uM [%] |
| --- | --- |
| O=C(COC(=O)c1cc(S(=O)(=O)N2CCOCC2)ccc1F)c1ccc[nH]1 | -18.6 |
| Cc1ccc(NC(=O)COc2ccccc2[N+](=O)[O-])nc1 | 15.4 |
| CC(C)[C@@H]1CC[C@@H](C)C[C@H]1OC(=O)C[n+]1cc(-c2ccc(Cl)cc2)n2c1CCCCC2.[Cl-] | -60.1 |
| Cc1ccc(N(CC(=O)NC2CCCCC2)S(=O)(=O)c2c(C)noc2C)cc1 | 12.4 |
| Cc1ccc(C(=O)OCC(=O)NC(=O)c2cccn2C)cc1 | 4 |
| CCOc1ccc(OCCSc2nc3ccccc3n2CC(=O)O)cc1 | -7.28 |
| CNS(=O)(=O)c1cc(C(=O)OCC(=O)NC2CCCc3ccccc32)ccc1Cl (stereo not shown) | -7.78 |
| Cc1ccc(-c2nnn(CC(=O)N3CCN(c4ccccc4)CC3)n2)o1 | 3.45 |
| Cc1ccc(S(=O)(=O)NC(=O)Nc2ccc(C)cn2)cc1 | 14.6 |
| NS(=O)(=O)c1ccc(NC(=O)CN2CCN(S(=O)(=O)c3ccc(F)cc3)CC2)cc1 | 7.15 |
| O=C(Nc1ccc(OCc2ccccc2)cc1)c1ccccc1 | 20.5 |
| CCCCC1(C)OC(=O)C(=Cc2ccc(-c3ccc(Cl)c(C(=O)O)c3)o2)C(=O)O1 (stereo not shown) | 2.2 |
| COc1ccc(NC(=O)Nc2cccc(C(F)(F)F)c2)cn1 | 3.61 |
| CCCS(=O)(=O)N1CCCC(C(=O)NCc2ccco2)C1 (stereo not shown) | 10.8 |
| COc1ccccc1NC(=O)COC(=O)COc1cccc2c1OC(C)(C)C2 | -2.38 |
| OCC(O)[C@@H](O[C@H]1O[C@H](CO)[C@@H](O)[C@H](O)[C@H]1O)[C@H](O)[C@@H](O)CO (stereo partly shown) | 21.8 |
| COc1ccc(/C=C2\SC(=O)N(CC(=O)NN3CCN(C)CC3)C2=O)cc1OC | 19 |
| Cc1nc2ccc(NC(=O)Cc3ccccc3F)cc2s1 | 11.8 |
| COc1ccc(NS(=O)(=O)NC(=O)c2c(C)n(C)c3ccccc23)cc1 | 17.8 |
| Cc1cc(C)c2c(c1)/C(=c1/sc3n(c1=O)CN(c1ccccc1)CN=3)C(=O)N2 | 8.77 |
| CC(Sc1nnc(COc2ccc(Cl)cc2)n1Cc1ccco1)C(=O)N1CCNC1=O (stereo not shown) | -55.9 |
| CC(C)(Cl)C1Cc2cc3ccc(=O)oc3cc2O1 (stereo not shown) | -0.0503 |

| SMILES | hERG current change (%, negative = inhibition) at 10uM [%] |
| --- | --- |
| C/C(=N\Nc1ccccn1)c1ccc(C(C)C)cc1 | 23.7 |
| COc1ccc(S(=O)(=O)N2CC(C)N(C(=O)N3CCOCC3)C2)cc1 (stereo not shown) | 16.8 |
| O=C1c2nc3cc(-c4ccccc4)[nH]n3c(=O)c2CN1Cc1ccccc1 | 14 |
| CN(C)c1ccc(CN(C(=O)c2ccc(Cl)c([N+](=O)[O-])c2)C2CCS(=O)(=O)C2)cc1 (stereo not shown) | 1.05 |
| Cc1c(NC(=O)Nc2ccc(F)cc2F)c(=O)n(-c2ccccc2)n1C | -26.6 |
| O=C(Nc1cccc(C(F)(F)F)c1)c1c(O)c2ccccc2[nH]c1=O | 16 |
| O=C(N[C@H]1CP(=O)(Oc2ccccc2)O[C@H](COCc2ccccc2)[C@H]1O)C(Cl)(Cl)Cl (stereo partly shown) | -2.22 |
| Cc1ccc(NC(=O)COC(=O)CC2SC(N3CCCC3)=NC2=O)cc1 (stereo not shown) | 6.65 |
| CCCCc1cc(=O)oc2c(C)c(OCC(=O)NCc3ccccn3)ccc12 | -49.3 |
| Nc1cc2c(cc1Cl)N(Cc1ccccc1)C(=O)CO2 | 2 |
| CC1(c2ccc3ccccc3c2)NC(=O)N(CC(=O)Nc2cccc(S(=O)(=O)N3CCOCC3)c2)C1=O (stereo not shown) | 23.8 |
| COCCn1ccc2c(OCC(=O)Nc3cc(OC)ccc3OC)cccc2c1=O | -14.3 |
| O=C(Nc1ncc2c(n1)-c1ccccc1CC2)C1CC1 | 11.8 |
| CCCCn1c(N)c(N(CCOC)C(=O)c2cc3c(s2)CCC(C)C3)c(=O)[nH]c1=O (stereo not shown) | 9.36 |
| O=S(=O)(Nc1ccc(-c2ccc(N3CCOCC3)nn2)cc1)c1ccc(Cl)c(Cl)c1 | -14.4 |
| COC(=O)/C=C1\S/C(=N/N=C/c2ccco2)NC1=O | 10.9 |
| COc1ccc(-n2c(=S)[nH]c3cc(C(=O)NCCCN4CCOCC4)ccc3c2=O)cc1 | 14.9 |
| CCOC(=O)Cn1c(-c2ccccc2)cc(SC)c(C#N)c1=O | 24.8 |
| CCCCN(C(=O)CSc1nncn1-c1ccccc1OC)c1c(N)n(Cc2ccccc2)c(=O)[nH]c1=O | 16.7 |
| O=C(COc1ccccc1)Nc1ccc(NC(=O)c2ccco2)cc1 | 4.15 |
| Cc1nc2ccccc2c2oc(C(=O)N3CC(C)CC(C)C3)cc12 (stereo not shown) | -23.2 |
| CCOc1ccc(NC(=O)COC(=O)c2c(OC)cccc2OC)cc1 | -1.27 |

| SMILES | hERG current change (%, negative = inhibition) at 10uM [%] |
| --- | --- |
| COc1cccc(N2CC(NC(=O)c3cccc4ccccc34)CC2=O)c1 (stereo not shown) | -6.44 |
| Cn1c(=O)c2c(nc(NCc3ccco3)n2CC(O)CO)n(C)c1=O (stereo not shown) | 22.1 |
| COc1ccccc1CNC(=O)CCc1ccccc1 | 2.65 |
| CCCCn1c(=O)n(CC(=O)NCc2ccc(C)cc2)c(=O)c2c1nc(CO)n2CCC | -36.1 |
| COc1cc(NC(=S)Nc2ccc(S(=O)(=O)N3CCOCC3)cc2)cc(OC)c1OC | 10.6 |
| c1ccc(CSc2ncn[nH]2)nc1 | 14.3 |
| CCCOc1ccc(NC(N)=O)cc1OCCC | -4.7 |
| O=C(Cc1ccccc1)Nc1cccc(S(=O)(=O)N2CCCCCC2)c1 | -49.1 |
| O=C(O)CCC(=O)NC1CCCCCCC1 | 12.5 |
| O=c1c([N+](=O)[O-])cc(C(F)(F)F)cn1Cc1cccc(Cl)c1 | -10.1 |
| CCCn1c(-c2cccs2)nc2nc3ccccc3nc21 | -10.5 |
| Cn1c(CCNC(=O)c2cccs2)n[nH]c1=S | 23.1 |
| CC1CCC(C(=O)NNC(=O)c2cc(-c3ccco3)[nH]n2)CC1 (stereo not shown) | -4.58 |
| CN(C)CCOc1ccc(C(C)(C)c2ccccc2)cc1.O=C(O)C(=O)O | 23.2 |
| COc1ccc(/C=C(/NC(=O)c2ccccc2)C(=O)NCCN2CCOCC2)cc1OC | 11.6 |
| Cc1nn2c(=O)cc(COC(=O)c3c(F)cccc3Cl)nc2s1 | -11.1 |
| Cc1ccnc(NC(=O)CCC(=O)N(Cc2ccco2)C(C(=O)NC(C)C)c2ccc(F)cc2)c1 (stereo not shown) | -5.49 |
| CCn1c(SCC(=O)c2ccccc2)nc2sc3c(c2c1=O)CCN(C)C3 | -3.77 |
| CN1CCCN(C(=O)COc2ccccc2)CC1 | 8.8 |
| COc1ccc([C@H]2CC(=O)C=C(c3ccc4c(c3)OCO4)C2)cc1OC | -3.35 |
| O=C(NCc1csc2ccc(Cl)cc12)Nc1cccc2ccccc12 | 11.1 |
| Cc1cccc(C2CC3(CC(C)(C)NC(=S)N3)Oc3cc(O)ccc32)c1 (stereo not shown) | 9.25 |
